# Biological target: T1, Thioredoxin Reductase + Thioredoxin (Bos taurus, UniProt O97680)
# T1 sequence (O97680 1-105): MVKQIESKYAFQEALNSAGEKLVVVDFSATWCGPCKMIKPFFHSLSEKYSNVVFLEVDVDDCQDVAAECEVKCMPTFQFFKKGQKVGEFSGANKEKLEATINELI
# Experiment: NADPH oxidation at 340 nm, coupled thioredoxin (TX)/thioredoxin reductase (TXR)/NADPH system
# Format: biochemical, bovine
# Conditions: result in words
# Protocol: Biochemistry 21:6628-6633 (1982).
# Data was then collected and plotted in Microsoft Excel. Error calculations, and graphical representations were performed in Microsoft Excel and Kaleidograph (ver. 3.5). Nonlinear data was graphically rendered using Kaleidograph. ANOVA and other statistical analyses were performed using SAS (ver. 8.2). Unless otherwise noted, significance level was set at 0.05, and error bars represent actual experimental standard deviation.
# It should be noted that for the purposes of FIG. 17 only, thioredoxin is labeled TXR and thioredoxin reductase is labeled TRR.
# Table 4, below, illustrates that various Formula (I) compounds (i.e., disulfide-containing compounds) of the present invention can serve as alternate substrate inhibitors for the coupled thioredoxin (TX)/thioredoxin reductase (TXR)/NADPH system as measured by the oxidation of NADPH. In Table 4, the Formula (I) compounds were utilized at a concentration of 0.5 mM.
row,Compound,substrate (alternative substrate inhibitor) for thioredoxin / the coupled thioredoxin/thioredoxin reductase/NADPH system
1,NC(CCSSCCS(=O)(=O)O)C(=O)O (centres unmarked) [BNP7768],substrates
2,NC(CSSCCS(=O)(=O)O)C(=O)O (centres unmarked) [BNP7766],substrates
3,NC(CCC(=O)NC(CSSCCS(=O)(=O)O)C(=O)O)C(=O)O (centres unmarked) [BNP7774],substrates
4,N[C@@H](CCC(=O)N[C@@H](CSSCCS(=O)(=O)O)C(=O)NCC(=O)O)C(=O)O [BNP7772],substrates
5,N[C@@H](CSSCCS(=O)(=O)O)C(=O)NCC(=O)O [BNP7776],substrates

# Reference: patent US9320760B2, “Compositions and methods of use of compounds to increase cancer patient survival time” (BioNumerik Pharmaceuticals, Inc., priority 2008, dated 2016)
